The experiment has as its system MDA-MB-231 cancer cell-bearing hematopoietic stem cell-transplanted NOG mice. The experiment is described as follows: In vivo immunoenhancing effect: flow cytometry of tumor immunocytes in MDA-MB-231-bearing huNOG mice. Also on record: species or system mouse. As to the method:
5 × 10^6 human breast adenocarcinoma-derived MDA-MB-231 cells (American Type Culture Collection) subcultured in Leibovitz's L-15 medium containing 10% FBS were suspended in Matrigel and subcutaneously transplanted to each female immune-humanized NOG mouse (huNOG mouse) engrafted with human CD34 cells. The mice were grouped on the basis of their tumor volumes. 7 days after transplantation, 1 mg/kg control hIgG1LALA-ADC or 0.1 mg/kg, 0.3 mg/kg, or 1 mg/kg cMAb1_hIgG1LALA-ADC was intravenously administered to each mouse (n = 5). 28 days after ADC administration, tumor was harvested. The harvested tumor mass was treated with gentleMACS (Miltenyi Biotec) to recover cells. The cells were washed with PBS and resuspended therein. Then, the cell suspension was used as a sample for flow cytometry. The amount of PBS in resuspending the cells was the following amount depending on a tumor weight for addition: 0.6 mL for a tumor weight up to 50 mg; 0.9 mL for a tumor weight of 50 to 100 mg; 1.2 mL for a tumor weight of 100 to 150 mg; 1.8 mL for a tumor weight of 150 to 200 mg; and 2.4 mL for a tumor weight of 200 to 300 mg.
Zombie NIR dye solution was prepared by diluting Zombie NIR dye solution attached to Zombie NIR Fixable Viability Kit (BioLegend, Inc.) 1000-fold with PBS. Fc Block solution was prepared by adding and mixing Mouse BD Fc Block (BD Biosciences) solution, Human BD Fc Block solution, and autoMACS Rinsing Solution (Miltenyi Biotec) containing 0.5% BSA (hereinafter, referred to as "MACS buffer") at a ratio of 1:1:48. Foxp3 Fixation/Permeabilization buffer was prepared by mixing 3.5 mL of Concentrate and 10.5 mL of Diluent of Foxp3 Fixation/Permeabilization Concentrate and Diluent (eBioscience, Inc.). Perm wash buffer was prepared by diluting Intracellular Staining Perm Wash Buffer (BioLegend, Inc.) 10-fold with H2O. A cell surface marker antibody cocktail solution was used by adding 2 µL of FITC anti-human CD25 Antibody (BioLegend, Inc.), 1 µL of APC anti-human CD8 Antibody (BioLegend, Inc.), 3 µL of Brilliant Violet 421 anti-human CD4 Antibody (BioLegend, Inc.), 2.5 µL of PE/Cyanine7 anti-human CD45RA Antibody (BioLegend, Inc.), 2 µL of Alexa Fluor 700 anti-mouse CD45 Antibody, 2 µL of Brilliant Violet 605 anti-human CD45 Antibody (BD Biosciences), and Brilliant Violet 650 anti-human CD3 Antibody, and adjusting the whole amount to 50 µL with MACS buffer. An intracellular marker antibody cocktail solution was used by adding 3 µL of PE Mouse anti-Human FoxP3 (BD Biosciences), 3 µL of PerCP/Cyanine5.5 anti-human/mouse Granzyme B Recombinant Antibody (BioLegend, Inc.), 1 µL of Mouse BD Fc Block (BD Biosciences), and 1 µL of Human BD Fc Block, and adjusting the whole amount to 100 µL with Perm wash buffer.
0.1 mL of Zombie NIR dye diluting solution was added to 0.2 mL of the sample for flow cytometry prepared in 9)-2-1, and the mixture was incubated at 4°C for 30 minutes. 0.1 mL of MACS buffer was added thereto, and the mixture was centrifuged, followed by the removal of a supernatant by suction. 0.1 mL of Fc Block solution was added to the remaining cells, which were then incubated at 4°C for 5 minutes. 0.1 mL of the cell surface marker antibody cocktail solution prepared in 9)-2-2 was added to the cells, which were then incubated at 4°C for 30 minutes. Subsequently, 0.1 mL of MACS buffer was added thereto, and the mixture was centrifuged, followed by the removal of a supernatant by suction. 0.2 mL of MACS buffer was added to the remaining cells, and the mixture was further centrifuged to remove a supernatant. This operation was further carried out twice for the washing of the cells. 0.2 mL of Foxp3 Fixation/Permeabilization buffer was added to the cells, which were then incubated at 4°C for 1 hour. 0.2 mL of the intracellular marker antibody cocktail solution was added to the washed cells, which were then incubated at 4°C for 1 hour and then washed twice with Perm wash buffer. […]

Where [1] appears, read: 3 mg/kg i.v. 7 days after transplantation, tumor 21 days after administration, vs human IgG1LALA-ADC, n = 4 or 5.
[2] abbreviates: 0.1, 0.3, 1, 3 or 10 mg/kg i.v. 7 days after transplantation, tumor 23 days after administration, vs vehicle ABS, n = 5.

B1: hMAb1A-ADC (conjugate)
heavy: EVQLVESGGGLVQPGGSLRLSCAASGFTFNNYYMVWVRQAPGKGLEWVAYISTGGGTTYYRESVKGRFTISRDNSKSTLYLQMNSLRAEDTAVYYCTTSVYFSDGSSHYDGEWFAYWGQGTLVTVSS[letters of human IgG1 constant region left out]
light: DIVMTQSPDSLAVSLGERATINCKASESVSTRMHWYQQKPGQPPKLLIYKASNLASGVPARFSGSGSGTDFTLTISSLQAEDVAVYYCQQSWNGWAFGQGTKVEIKRTVAAPSVFIFPPSDEQLKSGTASVVCLLNNFYPREAKVQWKVDNALQSGNSQESVTEQDSKDSTYSLSSTLTLSKADYEKHKVYACEVTHQGLSSPVTKSFNRGEC
In the case of B1, the “number of human GZMB-positive and CD8-positive T cells per mg of the tumor tissue” value (3 mg/kg hMAb1A-ADC i.v. compared to ADCT-301 (0.015 to 1.5 mg/kg i.v.), tumor 21 or 23 days after administration) is reported as “increase”. For the same molecule, under setting [1], the “ratio of the number of human CD8-positive T cells to the number of human CD45 cells” value is recorded as “increase”; the “ratio of the number of human GZMB-positive and CD8-positive T cells to the number of human CD45 cells” value is “increase”; the “ratio of the number of human Treg cells to the number of human CD45 cells” value is on record as “decreased”. Under setting [2], the “ratio of the number of human CD8-positive T cells to the number of human CD45 cells (% of hCD45)” value is reported as “increase”; the “ratio of the number of human FoxP3-negative and CD4-positive T cells to the number of human CD45 cells (% of hCD45)” value is “increase”; the “ratio of the number of human GZMB-positive and CD8-positive T cells to the number of human CD45 cells (% of hCD45)” value is listed as “increase”; the “ratio of the number of human Treg cells to the number of human CD45 cells (% of hCD45)” value is on record as “decreased in a dose-dependent manner”.

The record behind these values is patent publication EP4692351A1, “ANTI-CD25 ANTIBODY AND ANTI-CD25 ANTIBODY-DRUG CONJUGATE” (priority 2023, dated 2024).
